# Source: the supplement of paper PMC4604168 (melanoma cell lines)
# Some of the results follow. Single values are uncertain, as repeats are few or missing.
# Test system: WM3619
# Test: cell count relative to DMSO control; melanoma cells; higher = more viable cells
# Details: library dose: standard library concentration; 72 h
# 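Note: cells treated in 1,536-well plates, then fixed and DAPI-stained, with nuclei counted from automated high-throughput microscope images.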
row,SMILES,cell count [%]
1,"CN(C)S(=O)(=O)c1ccc2c(c1)/C(=C/c1cc3c([nH]1)CCCC3)C(=O)N2 + COc1ccc2c(c1)CCC1C2CCC2(C)C(NCCCCCCN3C(=O)C=CC3=O)CCC12 [U73122] (first compound 2 µM, partner dose 2 µM)",86.1
2,"NCC(=O)Nc1ccc(-n2nc(C(F)(F)F)cc2-c2ccc3c(ccc4ccccc43)c2)cc1 + CC(C)CCN1c2nc(Nc3cc(F)c(O)c(F)c3)ncc2N(C)C(=O)C1C [BID1870] (first compound 5 µM, partner dose 1 µM)",74.4
3,"OCCn1cc(-c2cnc3nnn(Cc4ccc5ncccc5c4)c3n2)cn1 + COc1ccc(-c2ccc3c(N4CCOCC4)nc(N4C[C@@H](C)O[C@@H](C)C4)nc3n2)cc1CO [KU0063794] (first compound 5 µM, partner dose 0.1 µM)",57.7
4,"Cc1nc(Nc2ncc(C(=O)Nc3c(C)cccc3Cl)s2)cc(N2CCN(CCO)CC2)n1 [dasatanib] + O=S(=O)(c1ccccc1)N(CC(F)(F)F)c1ccc(C(O)(C(F)(F)F)C(F)(F)F)cc1 [T0901317] (first compound 0.02 µM, partner dose 7 µM)",50.1
5,"C[C@]1(c2nc3c(C(N)=O)cccc3[nH]2)CCCN1 [Veliparib] + COc1cc(N2CCC(N3CCN(C)CC3)CC2)ccc1Nc1ncc(Cl)c(Nc2ccccc2S(=O)(=O)C(C)C)n1 [NVP-TAE684] (first compound 7 µM, partner dose 0.4 µM)",106

# Test system: WM451Lu
# Test: as above
# Details: library dose: standard library concentration; 72 h
row,SMILES,cell count [%]
1,"NCC(=O)Nc1ccc(-n2nc(C(F)(F)F)cc2-c2ccc3c(ccc4ccccc43)c2)cc1 + O=C1NC(=O)/C(=C/c2ccc(-c3ccc(F)cc3O)o2)S1 [AS252424] (first compound 5 µM, partner dose 5 µM)",74.1
2,"C[C@]1(c2nc3c(C(N)=O)cccc3[nH]2)CCCN1 [Veliparib] + COc1ccc(COc2ccc(Cc3cnc(N)nc3N)cc2OC)cc1 [GW2580] (first compound 7 µM, partner dose 5 µM)",118
3,"Cc1nc(Nc2ncc(C(=O)Nc3c(C)cccc3Cl)s2)cc(N2CCN(CCO)CC2)n1 [dasatanib] + O=c1cc(-c2cccc3c2Sc2ccccc2S3)oc(N2CCOCC2)c1 [KU55933] (first compound 0.02 µM, partner dose 5 µM)",76.9
4,"NC(=O)Nc1cc(-c2cccc(F)c2)sc1C(=O)N[C@H]1CCCNC1 + CCN(CC)CCCCNc1ncc2cc(-c3cc(OC)cc(OC)c3)c(NC(=O)NC(C)(C)C)nc2n1 [PD173074] (first compound 0.1 µM, partner dose 0.5 µM)",79.9
5,"C=CCn1c(=O)c2cnc(Nc3ccc(N4CCN(C)CC4)cc3)nc2n1-c1cccc(C(C)(C)O)n1 + c1cc(-c2cnn3cc(-c4ccc(OCCN5CCCCC5)cc4)cnc23)ccn1 [Dorsomorphin] (first compound 0.1 µM, partner dose 2 µM)",77.8
6,"C[C@]1(c2nc3c(C(N)=O)cccc3[nH]2)CCCN1 [Veliparib] + COc1ccc(-c2ccc3c(N4CCOCC4)nc(N4C[C@@H](C)O[C@@H](C)C4)nc3n2)cc1CO [KU0063794] (first compound 7 µM, partner dose 0.1 µM)",102
7,"C=CCn1c(=O)c2cnc(Nc3ccc(N4CCN(C)CC4)cc3)nc2n1-c1cccc(C(C)(C)O)n1 + O=S(=O)(c1ccccc1)N(CC(F)(F)F)c1ccc(C(O)(C(F)(F)F)C(F)(F)F)cc1 [T0901317] (first compound 0.1 µM, partner dose 7 µM)",92.2
8,"CO[C@@H]1[C@H](N(C)C(=O)c2ccccc2)C[C@H]2O[C@]1(C)n1c3ccccc3c3c4c(c5c6ccccc6n2c5c31)C(=O)NC4 [Midostaurin] + COc1cc(N2CCC(N3CCN(C)CC3)CC2)ccc1Nc1ncc(Cl)c(Nc2ccccc2S(=O)(=O)C(C)C)n1 [NVP-TAE684] (first compound 0.4 µM, partner dose 0.4 µM)",72.2
9,"OCCn1cc(-c2cnc3nnn(Cc4ccc5ncccc5c4)c3n2)cn1 + O=C(O)C(=O)Nc1sc2c(c1C(=O)O)CCNC2 [TCS401] (first compound 5 µM, partner dose 8.33333 µM)",95.3
10,"NC(=O)Nc1cc(-c2cccc(F)c2)sc1C(=O)N[C@H]1CCCNC1 + O=C1NC(=O)/C(=C/c2ccc(-c3ccc(F)cc3O)o2)S1 [AS252424] (first compound 0.1 µM, partner dose 5 µM)",103
